About 4,200 (1.3%) of roughly 330,000 compounds were called active. The inconclusive results got no clear call from the source; some entries with a clear call stand among them for comparison. The call rests on the fitted dose curve; in most records, active means well fitted activation curve with a large enough effect; inconclusive means small, poorly fitted or top-dose-only effect; inactive means no such curve, though single readings can be large or run the other way. A potency beside an inconclusive call is a rough fit, not a confirmed value.
Assay: qHTS screen for small molecules that induce genotoxicity in human embryonic kidney (HEK293T) cells expressing luciferase-tagged ELG1; further: nearly all actives have a fitted effect of over 60% in size; on activity change, positive = activation: % of control where 0% means no effect
Conditions: HEK293T ELG1-luciferase reporter, luminescence, 16 h; series mostly up to 46 µM; activity change, positive = activation: at the top concentration
Summary of the method: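 HEK293T cells expressing luciferase-tagged ELG1 were exposed to compound or DMSO vehicle for 16 hr at 37 °C and 5% CO2. Luciferase activity was then measured with ONE-Glo after 30 min at room temperature.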
Potency means the concentration at half of the fitted maximal effect; tags describe the fitted curve by direction and shape.

Compound | Potency | activity change, positive = activation
CCOC(=O)c1c(NC(=O)N/N=C/c2ccccc2OCC)sc(C(C)=O)c1C | inconclusive: 29.1 µM [activator, partial curve, poor fit] | 
COc1ccc(-c2coc3cc(OC4OC(CO)C(O)C(O)C4O)ccc3c2=O)cc1 (configuration not stated) | active: 8.2 µM | 
O=C(NC(=S)NC1CCCC1)c1ccccc1 | inconclusive: 18.3 µM [activator, partial curve] | 
Cc1cccc(N(Cc2ccccc2)C(=O)CN2C(=O)NC3(CCCCC3C)C2=O)c1 (configuration not stated) |  | inactive: -1.58%
Cn1cccc1/C=C1\CCc2ccccc2C1=O | inconclusive: 0.058 µM [activator, partial curve, poor fit] | 
COc1ccc(Nc2cc(Nc3cc(OC)c(OC)c(OC)c3)ncn2)cc1 | inconclusive: 16.4 µM [activator, partial curve, poor fit] | 
NC(=O)C1CC(=O)N(c2ccc(OCC(=O)Nc3ccccc3F)cc2)C1 (configuration not stated) | inconclusive: 20.6 µM [activator, single point] | 
O=C(NCC(c1cccs1)N1CCOCC1)c1cc2ccccc2oc1=O (configuration not stated) |  | inactive: -1.72%
CCc1ccc(NC(=O)c2noc3c2CCc2ccccc2-3)cc1 | inconclusive: 18.4 µM [activator, single point] | 
O=C1C(C=Nc2ccc(F)cc2)=C(O)c2ccccc21 | inconclusive: 2.91 µM [activator, partial curve] | 
Cc1ccc(Nc2cc(C)nc3ncnn23)c(Cl)c1 | inconclusive: 18.4 µM [activator, partial curve, poor fit] | 
CC(C)(C)c1csc(NC2=NS(=O)(=O)c3ccccc32)n1 | inconclusive: 2.06 µM [activator, full curve, poor fit] | 
CCC(=O)NCCc1nc2cc(NC(=O)c3ccc(OC)cc3)ccc2n1C | active: 8.91 µM | 
O=C(Nc1ccc(NC(=O)C2CC2)nc1)c1cnccn1 | inconclusive: 16.4 µM [activator, partial curve, poor fit] | 
O=C(NCCOc1ccccc1)c1cncc(Br)c1 | active: 16.4 µM | 
CCCCn1cnc2c(oc3nc4c(cc32)CCCC4)c1=O | inconclusive: 2.06 µM [activator, full curve] | 
COc1cccc(/C=N/Nc2nnc3c(n2)[nH]c2ccccc23)c1OC | inconclusive: 32.6 µM [activator, partial curve, poor fit] | 
O=C(OCC(=O)c1c[nH]c2ccccc12)c1ccco1 | active: 16.4 µM | 
O=C(Nc1ccc(S(=O)(=O)Nc2ncccn2)cc1)c1ccc(F)c(S(=O)(=O)N2CCOCC2)c1 |  | inactive: 2.76%
Cc1ccc(/C=N/Nc2nc3ccccc3[nH]2)s1 | inconclusive: 5.8 µM [activator, full curve, poor fit] | 
O=C(N/N=C/c1cccc(F)c1)c1c(O)c2c([nH]c1=O)CCCC2 | inconclusive: 4.11 µM [activator, partial curve, poor fit] | 
Cc1ccc([N+](=O)[O-])cc1S(=O)(=O)N1CCCC1 | inconclusive: 5.8 µM [activator, single point] | 
COc1cc2c(cc1OC)C(c1cccc(Br)c1)NC(=O)C2 (configuration not stated) | inconclusive: 6.51 µM [activator, single point] | 
O=C(O)c1cccc(NC(=O)c2ccccc2NC(=O)c2ccco2)c1 |  | inactive: 0.935%

Compound | Potency | activity change, positive = activation
CC(=O)c1sc(N/N=C/c2ccc(C(C)C)cc2)nc1C | inconclusive: 11.6 µM [activator, partial curve] | 
Cc1nn(S(=O)(=O)c2ccccc2)c(C)c1Sc1ccc([N+](=O)[O-])cc1 | inconclusive: 20.6 µM [activator, single point] | 
C=C(C)Cc1c(C)c(C#N)c2[nH]c3ccccc3n2c1=O |  | inactive: -6.64%
Cc1nn(-c2ccccc2)c(N)c1N=Nc1ccc2ccccc2c1 | inconclusive: 23.1 µM [activator, single point] | 
CC(=O)c1cccc(N=Nc2c(C)[nH]c3ccccc23)c1 |  | inactive: 6.39%
CC(C(N)=O)N1C(=O)c2cccc3cccc1c23 (configuration not stated) |  | inactive: -0.557%
COc1ccc(N2C(=O)c3ccccc3NC23CCCCC3)cc1 | inconclusive: 10.3 µM [activator, partial curve] | 
COc1ccc(-c2cn3cccnc3n2)cc1 | inconclusive: 9.2 µM [activator, partial curve, poor fit] | 
CCCCOc1ccc(-c2ncc(Cl)cn2)cc1 | active: 12.6 µM | 
CCNc1nnc(-c2ccc(C)cc2)o1 | inconclusive: 11.6 µM [activator, single point] | 
COc1ccc(Cl)cc1-c1nc(-c2ccc(Br)o2)no1 |  | inactive: 3.94%
COc1ccc(-n2nc3cc(C)c(N)cc3n2)cc1Cl | inconclusive: 3.98 µM [activator, partial curve, poor fit] | 
O=C(Nc1nc(-c2ccccc2)c(-c2ccccc2)s1)c1ccc(S(=O)(=O)N2CCCC2)cc1 | inconclusive: 5.17 µM [activator, full curve] | 
COc1ccc(CCNC(=O)c2c(O)c3c([nH]c2=O)CCCC3)cc1 | inconclusive: 23.1 µM [activator, partial curve, poor fit] | 
COc1ccc(C(=O)Nc2cccc(NC(=O)c3ccc(OC)c(OC)c3)n2)cc1OC |  | inactive: -2.73%
O=C(/C=C/Nc1ccc(F)cc1)c1ccco1 | active: 2.06 µM | 
CC(C)(C)OC(=O)N[C@H](/C=C/c1ccccc1)C(=O)OC(C)(C)C |  | inactive: -2.65%
Cc1c(NC(=O)c2ccccc2N)cccc1C(=O)O | inconclusive: 3.66 µM [activator, partial curve, poor fit] | 
CC(C)Cc1cc(C(=O)Nc2ccc(Br)cc2)no1 | inconclusive: 16.4 µM [activator, partial curve] | 
Cc1cc(NC(=O)NC(=O)c2ccccc2)no1 | active: 14.6 µM | 
Cc1ccc(-c2nc(CS(=O)(=O)CC(=O)N3CC(C)CC(C)C3)c(C)o2)cc1 (configuration not stated) | inconclusive: 29.1 µM [activator, single point] | 
CC(O)c1nc2ccccc2n1CCCc1ccccc1 (configuration not stated) |  | inactive: -9.66%
COc1ccc(/C=N/N2C(=O)C3C4C=CC(CC4)C3C2=O)c(OC)c1 (configuration not stated) |  | inactive: 7.4%

— PubChem BioAssay AID504466 (National Center for Advancing Translational Sciences (NCATS), 2011)
